Values of other authors in paper PMC11006913.
Some of the results follow.

How the values were obtained:
Conditions in all cases: PBM; conditions not shown; double strand, one strand shown; scale: upbm affinity estimate (log intensity, higher = more binding, comparable within an allelic series)
[1] = biological target: HOXD13 I297V (Homo sapiens) (UniProt P35453)
[2] = biological target: HOXD13 I322L (Homo sapiens) (UniProt P35453)
[3] = biological target: HOXD13 N298S (Homo sapiens) (UniProt P35453)
[4] = biological target: HOXD13 Q325K (Homo sapiens) (UniProt P35453)
[5] = biological target: HOXD13 Q325R (Homo sapiens) (UniProt P35453)
[6] = biological target: HOXD13 R306W (Homo sapiens) (UniProt P35453)
[7] = biological target: HOXD13 S316C (Homo sapiens) (UniProt P35453)

| Sequence | binding signal [1] | binding signal [2] | binding signal [3] | binding signal [4] | binding signal [5] | binding signal [6] | binding signal [7] |
| --- | --- | --- | --- | --- | --- | --- | --- |
| CCTCGTAA [8-mer CCTCGTAA] | 12.3 | 12.4 | 12.4 | 10.3 | 11.1 | 11 | 12.1 |
| GGCCCGGA [8-mer GGCCCGGA] | 9.43 | 9.43 | 9.41 | 9.63 | 9.54 | 9.44 | 9.47 |
| ATTACGAG [8-mer ATTACGAG] | 12.2 | 12.4 | 12.4 | 10.7 | 11 | 11.1 | 12 |
| CGGCCTGC [8-mer CGGCCTGC] | 9.18 | 9.34 | 9.24 | 9.17 | 9.21 | 9.27 | 9.27 |
| ATATGAAA [8-mer ATATGAAA] | 11.3 | 10.8 | 11.6 | 11 | 11.2 | 10.8 | 11.2 |
| CGCCGAAG [8-mer CGCCGAAG] | 9.44 | 9.33 | 9.2 | 9.49 | 9.28 | 9.46 | 9.38 |
| CCTATTAA [8-mer CCTATTAA] | 12.5 | 11.7 | 12.7 | 11.4 | 11.7 | 11.8 | 12.3 |
| TCTATAAA [8-mer TCTATAAA] | 12.6 | 11.5 | 12.8 | 11.4 | 11.5 | 12.2 | 12.6 |
| TACGATAA [8-mer TACGATAA] | 11.1 | 10.9 | 11.3 | 11.1 | 11.3 | 10.7 | 11.1 |
| CGCAGCCG [8-mer CGCAGCCG] | 9.23 | 9.31 | 9.15 | 9.28 | 9.36 | 9.41 | 9.34 |
| GGCCCCAC [8-mer GGCCCCAC] | 9.73 | 9.61 | 9.71 | 9.46 | 9.52 | 9.55 | 9.72 |
| ATTTACGA [8-mer ATTTACGA] | 12.6 | 12.6 | 12.8 | 10.6 | 11.3 | 11.8 | 12.5 |
| CCTCCCAC [8-mer CCTCCCAC] | 9.31 | 9.42 | 9.4 | 9.5 | 9.55 | 9.6 | 9.48 |
| CCATTAAA [8-mer CCATTAAA] | 12.4 | 12.1 | 12.6 | 10.8 | 11.1 | 11.5 | 12.1 |
| ATTAACGA [8-mer ATTAACGA] | 12.3 | 12.3 | 12.5 | 11.1 | 11.4 | 11.4 | 12.1 |
| TATAAAAA [8-mer TATAAAAA] | 12.3 | 11.2 | 12.5 | 12.4 | 12.3 | 11.8 | 12.2 |
| ATCGTAAA [8-mer ATCGTAAA] | 12.4 | 12.5 | 12.6 | 10.5 | 11 | 11.4 | 12.3 |
| GTCATTAA [8-mer GTCATTAA] | 12.2 | 11.5 | 12.4 | 11.1 | 11.4 | 11.2 | 12.1 |
| ATTTACAA [8-mer ATTTACAA] | 12.3 | 12.3 | 12.4 | 10.9 | 11.3 | 11.4 | 12.1 |
| ATTAATGG [8-mer ATTAATGG] | 12.3 | 11.6 | 12.5 | 11.4 | 11.6 | 11.6 | 12.2 |
| AGGCCCAC [8-mer AGGCCCAC] | 9.47 | 9.5 | 9.46 | 9.27 | 9.45 | 9.35 | 9.44 |
| ATTTATTA [8-mer ATTTATTA] | 12.7 | 11.7 | 12.9 | 11.5 | 12.4 | 12.1 | 12.7 |
| CAGTCGCA [8-mer CAGTCGCA] | 9.51 | 9.43 | 9.49 | 9.65 | 9.6 | 9.53 | 9.52 |

| Sequence | binding signal [1] | binding signal [2] | binding signal [3] | binding signal [4] | binding signal [5] | binding signal [6] | binding signal [7] |
| --- | --- | --- | --- | --- | --- | --- | --- |
| GCTCGTAA [8-mer GCTCGTAA] | 12.4 | 12.6 | 12.7 | 10.2 | 11.1 | 11.3 | 12.3 |
| GCCCGGCC [8-mer GCCCGGCC] | 9.59 | 9.48 | 9.54 | 9.31 | 9.36 | 9.3 | 9.52 |
| GTTGTAAA [8-mer GTTGTAAA] | 12.3 | 12.4 | 12.4 | 10.7 | 10.9 | 11.1 | 12.1 |
| TCATTAAA [8-mer TCATTAAA] | 12.5 | 12 | 12.7 | 11.2 | 11.9 | 11.9 | 12.4 |
| CCCAGACC [8-mer CCCAGACC] | 9.31 | 9.24 | 9.13 | 9.54 | 9.28 | 9.26 | 9.22 |
| CCCCAGAG [8-mer CCCCAGAG] | 9.26 | 9.18 | 9.12 | 9.52 | 9.28 | 9.3 | 9.29 |
| GTTTATTA [8-mer GTTTATTA] | 12.6 | 11.4 | 12.9 | 11.4 | 12.4 | 12 | 12.6 |
| CATAAAAC [8-mer CATAAAAC] | 12.4 | 11.3 | 12.6 | 11.5 | 12 | 11.7 | 12.1 |
| GGATGGCC [8-mer GGATGGCC] | 9.62 | 9.35 | 9.52 | 9.36 | 9.31 | 9.37 | 9.48 |
| CTATTAAC [8-mer CTATTAAC] | 12.5 | 11.8 | 12.6 | 11.2 | 11.7 | 11.6 | 12.3 |
| ATTTATTG [8-mer ATTTATTG] | 12.8 | 11.6 | 13 | 11 | 11.8 | 12.2 | 12.7 |
| CGGCGCCG [8-mer CGGCGCCG] | 9.55 | 9.53 | 9.48 | 9.26 | 9.38 | 9.47 | 9.56 |
| AACTTAAT [8-mer AACTTAAT] | 11.2 | 10.7 | 11.3 | 11.1 | 11.2 | 10.8 | 11 |
| CACATAAA [8-mer CACATAAA] | 12.3 | 11.1 | 12.5 | 10.7 | 12 | 11.5 | 12 |
| CGATATTA [8-mer CGATATTA] | 11.2 | 10.9 | 11.3 | 11 | 11.3 | 10.7 | 11.1 |
| CCCCCTCG [8-mer CCCCCTCG] | 9.52 | 9.32 | 9.52 | 9.46 | 9.5 | 9.2 | 9.37 |
| CATATTAA [8-mer CATATTAA] | 12.2 | 11.5 | 12.5 | 11.9 | 12.3 | 11.6 | 12.2 |
| TCAATAAA [8-mer TCAATAAA] | 12.3 | 11 | 12.5 | 10.4 | 11.3 | 11.8 | 12.3 |
| CTCGTAAC [8-mer CTCGTAAC] | 12.3 | 12.5 | 12.5 | 10.3 | 10.9 | 10.9 | 12 |
| CCGCCTCC [8-mer CCGCCTCC] | 9.4 | 9.35 | 9.25 | 9.36 | 9.29 | 9.32 | 9.35 |
| CTTCTTAA [8-mer CTTCTTAA] | 10.9 | 10.7 | 11.1 | 10.8 | 11.1 | 10.5 | 10.8 |
| AGCCTTGC [8-mer AGCCTTGC] | 9.53 | 9.59 | 9.47 | 9.63 | 9.32 | 9.48 | 9.49 |
| AGGCACGC [8-mer AGGCACGC] | 9.44 | 9.37 | 9.32 | 9.26 | 9.39 | 9.37 | 9.49 |

| Sequence | binding signal [1] | binding signal [2] | binding signal [3] | binding signal [4] | binding signal [5] | binding signal [6] | binding signal [7] |
| --- | --- | --- | --- | --- | --- | --- | --- |
| CTGAGGGC [8-mer CTGAGGGC] | 9.53 | 9.6 | 9.59 | 9.46 | 9.44 | 9.43 | 9.6 |
| TTAATAAA [8-mer TTAATAAA] | 12.2 | 11.3 | 12.5 | 11.3 | 11.9 | 12 | 12.3 |
| GGGAGAAC [8-mer GGGAGAAC] | 9.55 | 9.56 | 9.55 | 9.32 | 9.41 | 9.5 | 9.57 |
| ATATGTGA [8-mer ATATGTGA] | 11.4 | 10.8 | 11.6 | 10.8 | 11 | 10.9 | 11.2 |
| CTCGGGGC [8-mer CTCGGGGC] | 9.38 | 9.33 | 9.34 | 9.35 | 9.3 | 9.33 | 9.4 |
| TCGTAAAA [8-mer TCGTAAAA] | 12.7 | 12.8 | 13 | 10.7 | 11.4 | 12 | 12.7 |
| AGGTCAGG [8-mer AGGTCAGG] | 9.4 | 9.49 | 9.46 | 9.49 | 9.4 | 9.42 | 9.41 |
| CTATAAAC [8-mer CTATAAAC] | 12.8 | 11.7 | 13 | 11.8 | 11.8 | 12.1 | 12.5 |
| ATTTAATG [8-mer ATTTAATG] | 12.3 | 12 | 12.5 | 11.4 | 11.7 | 11.7 | 12.2 |
| CCTCAGCC [8-mer CCTCAGCC] | 9.56 | 9.49 | 9.53 | 9.66 | 9.45 | 9.5 | 9.51 |
| CGGGCGGA [8-mer CGGGCGGA] | 9.51 | 9.43 | 9.47 | 9.61 | 9.48 | 9.4 | 9.41 |
| CCGGCAGC [8-mer CCGGCAGC] | 9.51 | 9.33 | 9.38 | 9.72 | 9.35 | 9.45 | 9.53 |
| ACTCGTAA [8-mer ACTCGTAA] | 12.1 | 12.3 | 12.4 | 10.4 | 11.1 | 11.1 | 12 |
| CTAGTAAA [8-mer CTAGTAAA] | 12.4 | 12.3 | 12.7 | 10.6 | 11.5 | 11.4 | 12.4 |
| CTATAAAG [8-mer CTATAAAG] | 12.2 | 11.2 | 12.4 | 11.3 | 11.4 | 11.5 | 12.1 |
| CCTGCCGC [8-mer CCTGCCGC] | 9.3 | 9.29 | 9.2 | 9.35 | 9.3 | 9.39 | 9.31 |
| CCTCATAA [8-mer CCTCATAA] | 12.1 | 10.9 | 12.4 | 10.7 | 11.7 | 11.1 | 11.9 |
| GCGTGCGA [8-mer GCGTGCGA] | 9.49 | 9.58 | 9.44 | 9.57 | 9.47 | 9.46 | 9.45 |
| GCAATAAA [8-mer GCAATAAA] | 12.9 | 11.4 | 13.1 | 11 | 12 | 12.1 | 12.8 |
| CCCCGGTC [8-mer CCCCGGTC] | 9.51 | 9.48 | 9.45 | 9.52 | 9.39 | 9.43 | 9.44 |
| CGCCTCTC [8-mer CGCCTCTC] | 9.5 | 9.35 | 9.17 | 9.34 | 9.25 | 9.36 | 9.54 |
| CGCCCTTC [8-mer CGCCCTTC] | 9.56 | 9.53 | 9.47 | 9.55 | 9.56 | 9.46 | 9.46 |
